Measurements published in the supplement of paper PMC4967469.

Columns and labels:
Assay in all cases: Viability of human cancer cell lines after 72 h of drug (GDSC screen)
Epothilone B = compound: C/C(=C\c1csc(C)n1)[C@@H]1C[C@@H]2O[C@]2(C)CCC[C@H](C)[C@H](O)[C@@H](C)C(=O)C(C)(C)[C@@H](O)CC(=O)O1 [Epothilone B]; settings: top dose 0.032 µM; top dose inferred
Experimental: (§1)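 Human cancer cell lines in 384-well plates, medium with 10% serum, drug for 72 h over a 256-fold dose range (nine 2-fold or five 4-fold steps up to the top dose). Adherent lines were fixed and stained with the nucleic acid dye Syto60, suspension lines read with resazurin; signal relative to control wells, capped at 0 and 100%. One two-parameter sigmoid per drug and line, fitted in a mixed model over all curves with the slope shared within a line.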

PHA-793887 = compound: CC(C)CC(=O)Nc1n[nH]c2c1CN(C(=O)C1CCN(C)CC1)C2(C)C [PHA-793887]; settings: top dose 10.24 µM
Experimental: as §1

PLX4720 = compound: CCCS(=O)(=O)Nc1ccc(F)c(C(=O)c2c[nH]c3ncc(Cl)cc23)c1F [PLX4720]; settings: top dose 10 µM
Experimental: as §1

Y-39983 = compound: C[C@@H](N)c1ccc(C(=O)Nc2ccnc3[nH]ccc23)cc1 [Y-39983]; settings: top dose 20 µM; top dose inferred
Experimental: as §1

TPCA-1 = compound: NC(=O)Nc1sc(-c2ccc(F)cc2)cc1C(N)=O [TPCA-1]; settings: top dose 20 µM
Experimental: as §1

[1] = screen: GDSC drug entry 1371, top dose inferred

Cell Line | AUC (Epothilone B) | IC50 (Epothilone B) [µM] | AUC (PHA-793887) | IC50 (PHA-793887) [µM] | AUC (PLX4720; screen: GDSC drug entry 1036) | IC50 (PLX4720; screen: GDSC drug entry 1036) [µM] | AUC (Y-39983) | IC50 (Y-39983) [µM] | AUC (TPCA-1) | IC50 (TPCA-1) [µM] | AUC (PLX4720; [1]) | IC50 (PLX4720; [1]) [µM]
GMS-10 (glioma, adherent) | 0.932 | > 0.032 | 0.944 | > 10.2 | 0.958 | > 10 | 0.987 | > 20 | 0.958 | > 20 | – | –
GP5d (large intestine, adherent) | 0.587 | 0.00337 | 0.895 | 10.1 | – | – | 0.985 | > 20 | 0.874 | 16 | 0.99 | > 10
H4 (glioma, adherent) | 0.427 | 0.00127 | 0.919 | > 10.2 | 0.838 | 6.66 | 0.985 | > 20 | 0.888 | > 20 | 0.962 | > 10
H513 (mesothelioma, semi-adherent) | 0.945 | > 0.032 | 0.954 | > 10.2 | 0.98 | > 10 | 0.986 | > 20 | 0.977 | > 20 | 0.984 | > 10
H2369 (mesothelioma, adherent) | 0.495 | 0.00194 | 0.94 | > 10.2 | 0.975 | > 10 | 0.967 | > 20 | 0.945 | > 20 | 0.934 | > 10
H2373 (mesothelioma, adherent) | 0.816 | 0.0238 | 0.816 | 7.61 | 0.975 | > 10 | 0.933 | > 20 | 0.87 | > 20 | 0.98 | > 10
H2461 (mesothelioma, adherent) | 0.849 | > 0.032 | 0.94 | > 10.2 | 0.983 | > 10 | 0.973 | > 20 | 0.95 | > 20 | 0.899 | > 10
H2591 (mesothelioma, adherent) | 0.869 | > 0.032 | 0.952 | > 10.2 | 0.968 | > 10 | 0.876 | > 20 | 0.872 | > 20 | 0.953 | > 10
H2595 (mesothelioma, adherent) | 0.66 | 0.00664 | 0.825 | 9.74 | 0.925 | > 10 | 0.98 | > 20 | 0.94 | > 20 | 0.966 | > 10
H2722 (mesothelioma, adherent) | 0.739 | 0.0112 | 0.977 | > 10.2 | – | – | 0.897 | > 20 | 0.89 | > 20 | 0.918 | > 10
H2731 (mesothelioma, adherent) | 0.904 | > 0.032 | 0.984 | > 10.2 | 0.971 | > 10 | 0.98 | > 20 | 0.773 | 8.9 | 0.982 | > 10
H2795 (mesothelioma, adherent) | 0.968 | > 0.032 | 0.896 | > 10.2 | 0.749 | 3.21 | 0.954 | > 20 | 0.687 | 4.14 | 0.986 | > 10
H2803 (mesothelioma, adherent) | 0.916 | > 0.032 | 0.985 | > 10.2 | – | – | 0.955 | > 20 | 0.841 | 17.4 | 0.983 | > 10
H2804 (mesothelioma, adherent) | 0.597 | 0.00379 | 0.95 | > 10.2 | – | – | 0.963 | > 20 | 0.927 | > 20 | 0.984 | > 10
H2818 (mesothelioma, adherent) | 0.989 | > 0.032 | 0.988 | > 10.2 | – | – | 0.932 | > 20 | 0.973 | > 20 | 0.987 | > 10
H2869 (mesothelioma, adherent) | 0.746 | 0.0123 | 0.769 | 4.77 | 0.979 | > 10 | 0.868 | > 20 | 0.809 | 13.6 | 0.982 | > 10
H3118 (head and neck, adherent) | 0.507 | 0.00209 | 0.697 | 2.42 | 0.956 | > 10 | 0.977 | > 20 | 0.762 | 7.78 | 0.981 | > 10
H3255 (lung adenocarcinoma, adherent) | 0.609 | 0.00424 | 0.911 | > 10.2 | 0.965 | > 10 | 0.958 | > 20 | 0.926 | > 20 | – | –
HARA (lung squamous cell carcinoma, adherent) | 0.579 | 0.00342 | 0.486 | 0.584 | 0.968 | > 10 | 0.901 | > 20 | 0.849 | 19 | 0.981 | > 10
HCC38 (breast, adherent) | 0.583 | 0.00345 | 0.854 | 9.12 | 0.986 | > 10 | 0.957 | > 20 | 0.893 | > 20 | 0.974 | > 10
HCC70 (breast, adherent) | 0.63 | 0.00453 | 0.419 | 0.385 | – | – | 0.878 | 19.8 | 0.94 | > 20 | 0.977 | > 10
HCC1143 (breast, adherent) | 0.862 | > 0.032 | 0.856 | > 10.2 | 0.979 | > 10 | 0.918 | > 20 | 0.892 | > 20 | 0.959 | > 10
HCC1395 (breast, adherent) | 0.902 | > 0.032 | 0.966 | > 10.2 | 0.977 | > 10 | 0.935 | > 20 | 0.94 | > 20 | 0.961 | > 10

Cell Line | AUC (Epothilone B) | IC50 (Epothilone B) [µM] | AUC (PHA-793887) | IC50 (PHA-793887) [µM] | AUC (PLX4720; screen: GDSC drug entry 1036) | IC50 (PLX4720; screen: GDSC drug entry 1036) [µM] | AUC (Y-39983) | IC50 (Y-39983) [µM] | AUC (TPCA-1) | IC50 (TPCA-1) [µM] | AUC (PLX4720; [1]) | IC50 (PLX4720; [1]) [µM]
HCC1419 (breast, adherent) | 0.898 | > 0.032 | 0.941 | > 10.2 | 0.962 | > 10 | 0.979 | > 20 | 0.951 | > 20 | 0.979 | > 10
HCC1428 (breast, adherent) | 0.89 | > 0.032 | 0.97 | > 10.2 | 0.983 | > 10 | 0.983 | > 20 | 0.974 | > 20 | 0.986 | > 10
HCC1569 (breast, adherent) | 0.71 | 0.00971 | 0.881 | > 10.2 | 0.98 | > 10 | 0.962 | > 20 | 0.895 | > 20 | 0.951 | > 10
HCC1806 (breast, adherent) | 0.441 | 0.0014 | 0.554 | 0.888 | 0.955 | > 10 | 0.961 | > 20 | 0.882 | 18.2 | 0.987 | > 10
HCC1937 (breast, adherent) | 0.854 | 0.0315 | 0.843 | 8.94 | 0.978 | > 10 | 0.983 | > 20 | 0.955 | > 20 | 0.98 | > 10
HCC1954 (breast, adherent) | 0.715 | 0.0091 | 0.712 | 2.85 | 0.984 | > 10 | 0.984 | > 20 | 0.985 | > 20 | 0.949 | > 10
HCC-15 (lung squamous cell carcinoma, adherent) | 0.471 | 0.00163 | 0.943 | > 10.2 | 0.943 | > 10 | 0.964 | > 20 | 0.91 | > 20 | 0.83 | 8.9
HCC-44 (lung adenocarcinoma, adherent) | 0.308 | 0.000588 | 0.529 | 0.767 | 0.943 | > 10 | 0.881 | > 20 | 0.771 | 7.51 | 0.967 | > 10
HCC-56 (large intestine, adherent) | 0.536 | 0.00251 | 0.885 | > 10.2 | 0.987 | > 10 | 0.92 | > 20 | 0.93 | > 20 | 0.885 | > 10
HCC-78 (lung adenocarcinoma, adherent) | 0.873 | > 0.032 | 0.612 | 1.38 | 0.983 | > 10 | 0.973 | > 20 | 0.86 | > 20 | 0.981 | > 10
HCC-827 (lung adenocarcinoma, adherent) | 0.817 | 0.0214 | 0.922 | > 10.2 | 0.838 | 8.28 | 0.984 | > 20 | 0.771 | 8.83 | 0.983 | > 10
HCT-15 (large intestine, adherent) | 0.342 | 0.000708 | 0.987 | > 10.2 | 0.955 | > 10 | 0.937 | > 20 | 0.737 | 6.24 | 0.976 | > 10
HCT-116 (large intestine, adherent) | 0.644 | 0.0049 | 0.207 | 0.0927 | 0.987 | > 10 | 0.861 | 15.5 | 0.78 | 7.82 | 0.985 | > 10
HDQ-P1 (breast, adherent) | 0.727 | 0.0101 | 0.943 | > 10.2 | 0.956 | > 10 | 0.979 | > 20 | 0.898 | > 20 | 0.952 | > 10
HEC-1 (endometrium, adherent) | 0.731 | 0.00883 | 0.989 | > 10.2 | 0.979 | > 10 | 0.989 | > 20 | 0.989 | > 20 | 0.985 | > 10
HGC-27 (stomach, adherent) | 0.225 | 0.000371 | 0.772 | 3.37 | 0.938 | > 10 | 0.955 | > 20 | 0.771 | 6.53 | 0.973 | > 10
HLE (liver, adherent) | 0.291 | 0.000536 | 0.977 | > 10.2 | 0.981 | > 10 | 0.908 | > 20 | 0.859 | 15.2 | 0.983 | > 10
HMV-II (melanoma, adherent) | 0.352 | 0.000706 | 0.898 | > 10.2 | – | – | 0.958 | > 20 | 0.868 | > 20 | 0.98 | > 10
HN (head and neck, adherent) | 0.946 | > 0.032 | 0.987 | > 10.2 | 0.886 | 9.84 | 0.987 | > 20 | 0.989 | > 20 | 0.918 | > 10
HO-1-N-1 (head and neck, adherent) | 0.495 | 0.00194 | 0.832 | 5.83 | – | – | 0.972 | > 20 | 0.932 | > 20 | 0.949 | > 10
HO-1-u-1 (head and neck, adherent) | 0.586 | 0.0034 | 0.817 | 5.43 | 0.976 | > 10 | 0.973 | > 20 | 0.969 | > 20 | 0.987 | > 10
HOP-92 (large cell lung carcinoma, adherent) | 0.877 | > 0.032 | 0.982 | > 10.2 | – | – | 0.98 | > 20 | 0.967 | > 20 | 0.963 | > 10
HOS (osteosarcoma, adherent) | 0.315 | 0.000669 | 0.992 | > 10.2 | 0.962 | > 10 | 0.992 | > 20 | 0.992 | > 20 | 0.99 | > 10

IC50 is the fitted dose that halves viability relative to control wells, and lower means more sensitive; where the fit passes the top or lowest dose, that dose stands as a limit. The AUC spans the tested range (256-fold, ending at the top dose) of the same fit; values near 1 show little effect. For some assays here: The top dose, if marked as inferred, is not printed in the source and was worked back from the curve model. For some assays here: Drugs with an entry number were screened twice under separate entries, and the two screens often disagree.
